From PubChem BioAssay AID212 (DTP/NCI, 2004) come the findings set out here.

This experiment relates to BDF1 mice, colon carcinoma 38 sc, T/C %. Put plainly: NCI In Vivo Anticancer Drug Screen. Data for tumor model Colon Carcinoma 38 (subcutaneous) in B6D2F1 (BDF1) mice. As to conditions: endpoint: median tumor weight (est.), higher = larger tumour. The method in brief:
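T/C readout: treated group (T) measurement over vehicle control group (C) measurement. Endpoint is survival or tumor size in mice bearing a transplanted tumor.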

The mark [1] stands for this setting: dose: 100.0 mg/kg/injection, schedule: Q07DX002 (ip), vehicle: Klucel (hydroxypropylcellulose) (HPC).
[2] abbreviates: dose: 100.0 mg/kg/injection, schedule: Q07DX002 (ip), vehicle: saline with Tween-80.
Where [3] appears, read: dose: 4.0 mg/kg/injection, schedule: Q07DX002 (ip), vehicle: saline.
Where [4] appears, read: dose: 8.0 mg/kg/injection, schedule: Q07DX002 (ip), vehicle: saline.

Records with an inconclusive call do not appear. Certain results were filed several times, with different values. The list is limited to them. The source may hold further records. The values listed for one entry repeat one measurement in other runs, samples, wells, individuals or studies.

In the case of `N=c1ccn2c(n1)OC1C(O)C(CO)OC12` (stereo not drawn), the T/C is given as 82 % of control, 94 % of control, 109 % of control (dose: 100.0 mg/kg/injection, schedule: Q07DX002 (ip), vehicle: saline); 73 % of control, 86 % of control, 102 % of control (dose: 200.0 mg/kg/injection, schedule: Q07DX002 (ip), vehicle: saline); 60 % of control, 78 % of control, 87 % of control (dose: 400.0 mg/kg/injection, schedule: Q07DX002 (ip), vehicle: saline); 52 % of control, 84 % of control, 87 % of control (dose: 800.0 mg/kg/injection, schedule: Q07DX002 (ip), vehicle: saline).
In the case of `COc1cccc2c1C(=O)c1c(O)c3c(c(O)c1C2=O)C[C@@](O)(C(C)=O)C[C@@H]3OC1CC(N(Cc2ccccc2)Cc2ccccc2)C(O)C(C)O1` (stereo partly drawn), the T/C was 78 % of control and 108 % of control (dose: 6.75 mg/kg/injection, schedule: Q07DX002 (ip), vehicle: saline with Tween-80); 45 % of control and 74 % of control (dose: 13.5 mg/kg/injection, schedule: Q07DX002 (ip), vehicle: saline with Tween-80).
In the case of `COc1ccc2[nH]c3c(c2c1)CCNC3CC(C)CCC=C(C)C` (stereo not drawn), the T/C under setting [1] was 56 % of control and 85 % of control.
With `C/C(=N\NC(N)=O)c1cccc(/C(C)=N/NC(N)=O)n1`, the T/C under setting [2] is 46 % of control and 96 % of control.
Regarding `Cc1c2ccccc2cc2cccc[n+]12`, the T/C (dose: 5.0 mg/kg/injection, schedule: Q07DX002 (ip), vehicle: saline) is 57 % of control and 102 % of control.
As to `CC(C)NC(=O)OCc1c(COC(=O)NC(C)C)c(-c2ccc(Cl)c(Cl)c2)n2c1CCC2`, the T/C by setting is: (dose: 100.0 mg/kg/injection, schedule: Q07DX002 (ip), vehicle: distilled water + Tween-80) 34 % of control, 69 % of control, 82 % of control; (dose: 200.0 mg/kg/injection, schedule: Q07DX002 (ip), vehicle: distilled water + Tween-80) 11 % of control and 43 % of control.
Turning to `CCCCNc1ccc2nnc(C)n2n1`, the T/C is 78 % of control and 112 % of control (dose: 50.0 mg/kg/injection, schedule: Q07DX002 (ip), vehicle: other); 82 % of control and 154 % of control (dose: 100.0 mg/kg/injection, schedule: Q07DX002 (ip), vehicle: other).
In the case of `NC1CCCCC1N.O=C1C=CC(=C(c2ccc(O)cc2)c2ccccc2S(=O)(=O)[O-])C=C1.O=[N+]([O-])[O-].[Pt+4]`, the T/C runs as follows: (dose: 3.12 mg/kg/injection, schedule: Q07DX002 (ip), vehicle: saline) 5 % of control, 68 % of control, 69 % of control; (dose: 6.25 mg/kg/injection, schedule: Q07DX002 (ip), vehicle: saline) 8 % of control, 13 % of control, 54 % of control; (dose: 12.5 mg/kg/injection, schedule: Q07DX002 (ip), vehicle: saline) 2 % of control, 17 % of control, 43 % of control.
As to `COC1C(O)C(C)OC(OC2C(Oc3cccc4c(O)c5c(=O)oc6ccc(C)c7c(=O)oc(c34)c5c67)OC(C)C(O)C2O)C1O` (stereo not drawn), the T/C is, setting by setting: (dose: 50.0 mg/kg/injection, schedule: Q07DX002 (ip), vehicle: Klucel (hydroxypropylcellulose) (HPC)) 75 % of control and 159 % of control; (dose: 50.0 mg/kg/injection, schedule: Q07DX003 (ip), vehicle: Klucel (hydroxypropylcellulose) (HPC)) 67 % of control and 104 % of control; under setting [1], 60 % of control and 154 % of control.
In the case of `CN=C(N)N/N=C(\C)c1ccc2c(c1)Cc1ccccc1-2`, for the setting “dose: 200.0 mg/kg/injection, schedule: Q07DX002 (ip), vehicle: saline with Tween-80”, the T/C is 81 % of control and 119 % of control.
Consider `Cc1oc2c(C)c3oc(=O)cc(C)c3cc2c1CCl`, for which the T/C (dose: 25.0 mg/kg/injection, schedule: Q07DX002 (ip), vehicle: saline with Tween-80) was 82 % of control and 112 % of control; the T/C under setting [2] is 60 % of control and 109 % of control.
As to `CC1OC(=O)C(C(C)C)NC(=O)C(C(C)C)OC(=O)C(C(C)C)NC(=O)C(C)OC(=O)C(C(C)C)NC(=O)C(C(C)C)OC(=O)C(C(C)C)NC(=O)C(C)OC(=O)C(C(C)C)NC(=O)C(C(C)C)OC(=O)C(C(C)C)NC1=O` (stereo not drawn), the T/C is 93 % of control and 176 % of control (dose: 1.25 mg/kg/injection, schedule: Q07DX003 (ip), vehicle: saline with Tween-80); 40 % of control and 84 % of control (dose: 10.0 mg/kg/injection, schedule: Q07DX003 (ip), vehicle: saline with Tween-80); 25 % of control and 164 % of control (dose: 20.0 mg/kg/injection, schedule: Q07DX003 (ip), vehicle: saline with Tween-80).
Take `CC(=O)C1=C(O)C2(O)C(=O)c3c(c(C)c4ccc(C)c(O)c4c3O)CC2C(N)C1=O` (stereo not drawn): the T/C (dose: 30.0 mg/kg/injection, schedule: Q07DX002 (ip), vehicle: saline + alcohol) was 77 % of control and 122 % of control.
Regarding `CSc1cc(=O)n2c3ccccc3c3ccnc1c32`, the T/C by setting is: (dose: 5.0 mg/kg/injection, schedule: Q07DX002 (ip), vehicle: saline with Tween-80) 65 % of control and 98 % of control; (dose: 10.0 mg/kg/injection, schedule: Q07DX002 (ip), vehicle: saline with Tween-80) 90 % of control and 158 % of control; (dose: 20.0 mg/kg/injection, schedule: Q07DX002 (ip), vehicle: saline with Tween-80) 37 % of control and 91 % of control; (dose: 40.0 mg/kg/injection, schedule: Q07DX002 (ip), vehicle: saline with Tween-80) 47 % of control and 162 % of control.
For the compound `C=CC(=O)NCNC(=O)C=C`, the T/C runs as follows: (dose: 25.0 mg/kg/injection, schedule: Q07DX002 (ip), vehicle: saline) 48 % of control and 98 % of control; (dose: 50.0 mg/kg/injection, schedule: Q07DX002 (ip), vehicle: saline) 84 % of control and 117 % of control.
In the case of `O=C1c2ccccc2C(=O)c2c(NCCNCCO)ccc(NCCNCCO)c21`, the T/C is 50 % of control and 188 % of control (dose: 1.5 mg/kg/injection, schedule: Q07DX003 (ip), vehicle: saline); 22 % of control and 83 % of control (dose: 3.12 mg/kg/injection, schedule: Q07DX003 (iv), vehicle: Klucel (hydroxypropylcellulose) (HPC)); 58 % of control and 110 % of control (dose: 6.0 mg/kg/injection, schedule: Q07DX003 (ip), vehicle: saline); 48 % of control and 77 % of control (dose: 6.25 mg/kg/injection, schedule: Q07DX003 (iv), vehicle: Klucel (hydroxypropylcellulose) (HPC)); 20 % of control and 55 % of control (dose: 12.5 mg/kg/injection, schedule: Q07DX003 (iv), vehicle: Klucel (hydroxypropylcellulose) (HPC)).
As for `Cc1c(N)nc([C@H](CC(N)=O)NC[C@H](N)C(N)=O)nc1C(=O)N[C@H](C(=O)N[C@H](C)[C@@H](O)[C@H](C)C(=O)N[C@H](C(=O)NCCc1nc(-c2nc(C(=O)NCCC[S+](C)C)cs2)cs1)[C@@H](C)O)C(OC1OC(CO)C(O)C(O)C1OC1OC(CO)C(O)C(OC(N)=O)C1O)c1cnc[nH]1` (stereo partly drawn), the T/C was 51 % of control and 110 % of control under setting [3]; 29 % of control, 64 % of control, 102 % of control under setting [4].
In the case of `Nc1nc(-c2cccc3ccccc23)cc2ccccc12`, the T/C is 36 % of control and 116 % of control under setting [2]; 45 % of control and 99 % of control (dose: 400.0 mg/kg/injection, schedule: Q07DX002 (ip), vehicle: saline with Tween-80).
Regarding `C[C@]12C=CC(=O)C=C1CC[C@@H]1[C@@H]2C(=O)C[C@@]2(C)[C@H]1CC[C@]2(O)C(=O)CO`, under “dose: 400.0 mg/kg/injection, schedule: Q07DX002 (ip), vehicle: Klucel (hydroxypropylcellulose) (HPC)”, the T/C is 58 % of control and 115 % of control.
For `Cc1c(N)nc(C(CC(N)=O)NCC(N)C(N)=O)nc1C(=O)NC(C(=O)NC(C)C(O)C(C)C(=O)NC(C(=O)NCCc1nc(-c2nc(C(=O)NCCCNC(C)c3ccccc3)cs2)cs1)C(C)O)C(OC1OC(CO)C(O)C(O)C1OC1OC(CO)C(O)C(OC(N)=O)C1O)c1cnc[nH]1` (stereo not drawn), the T/C reads like this: under setting [3], 56 % of control and 102 % of control; under setting [4], 49 % of control and 104 % of control; (dose: 16.0 mg/kg/injection, schedule: Q07DX002 (ip), vehicle: saline) 44 % of control and 167 % of control.
For `Nc1n[n+](-c2ccccc2)no1`, the T/C runs as follows: (dose: 12.5 mg/kg/injection, schedule: Q07DX002 (ip), vehicle: water) 66 % of control, 113 % of control, 114 % of control; (dose: 25.0 mg/kg/injection, schedule: Q07DX002 (ip), vehicle: water) 68 % of control, 106 % of control, 108 % of control.
In the case of `CC(C)CCCCCCCCCCCCC(=O)NCC(=O)NC1C(C)OC(Nc2ncnc3nc[nH]c23)C(O)C1O` (stereo not drawn), the T/C (dose: 1.0 mg/kg/injection, schedule: Q07DX002 (ip), vehicle: distilled water + Tween-80) is 113 % of control and 192 % of control.
